39 variants from the RNAGym collection of RNA variant scans (doi:10.7554/elife.90254) can be followed below.

First the molecules themselves.
B1: LINE1-full (parent)
chain: UACGUAGGUGGUUUUCCCCUGAUAGUGCUAAGGGGGCCUGGAAGUUUGGACUGGGCAGAGCUCAACACAGCGUGGCAAAGUGGCUGUGGCUAGACUGCCUCUCUGGAUUCCUCGUCACUCAGCAGGGCAUCUCUGAGAGAAAUGCC

The source gives no read counts; variants with many changes may rest on few reads.

In this data set the parent is B1. In words: self-cleavage, relative activity (ratio to wild type); higher = more cleavage; in vitro, sequencing; the parent is a self-cleaving ribozyme.
UACGUAGGUGGUUUUCCCCUGAUAGUGCUGAGGGGGCCUGGAAGUUUGGACUGGGCGGAGCUCAACACAGCGUGGCAAAGUGGCUGUGGCUAGACUGCCUCUCUGGAUUCCUCGUCCCUCAGCAGGGCAUCUCUGAGAGAAAUGCC: the self-cleavage came out at 0.89.

On to UACGUAGGUGGUUUUCCCCUGAUAGUGCUGAGGGGGCCUGGAAGUUUGGACUGGGCAGAGCUCAACACGGCGUGGCAAAGUGGCUGUGGCUAGACUGCCUCUCUGGACUCCUCGUCACUCAGCAGGGCAUCUCUGAGAGAAAUGCC, for which the self-cleavage worked out at 0.

Consider UACGUAGGUGGUUUUCCCCUGAUAGUGCUGAGGGGGCCAGGAAGUUCGGACUAGGCAGAGCUCAACACAGCGUGGCAAAGUGGCUGUGGCUAGACUGCCUCUCUGGAUUCCUCGUCACUCAGCAGGGCAUCUCAGAGAGAAAUGCC, for which the self-cleavage was 1.17.

As to UACGUAGGUGGUUUUCCCCUGAUAGUGCUGAGGGGGCCUGGAAGUUUGGACUCGGCAGAGCUCAACACAGCGUAGCAAAGUGGCUGUGGCUAGACUGCCUCUCUGGAUACCUCGACACUCAGCAGGGCAUCUCUGAGAGAAAUGCC, the self-cleavage was 1.27.

In the case of UACGUAGGUGGUUUUCCCCUGAUAGUGCUGAGGGGGCCUGGAAGUUUGGACUGGGCAGGGCUCAACACAGCGUGGCAAAGUGGCUGAGGCUAGACUGCCUCUCUGGAUUCCUCGUCACUCAGCAGGGCAUCUCUGAGAGAAAUGCC, the self-cleavage was 0.08.

UACGUAGGUGGUUUUCCCCUGAUAGUGCUGAGGGGGCCUGGAAGUCUGGACUGGGCAGAGCUCAACACAGCGUGGCAAAGUGGCUGUGGCUAGACUGCCCCUCUGGAUUCCUCGUCACUCAGCAGGGCAUCUCUGAGAGAGAUGCC: the self-cleavage is 1.23.

For the variant UACGUAGGUGGUUUUCCCCUGAUAGUGCUGAGGGGGCCUGGAAGUUUGGACUGGGCUGAGCUCAACACAGCGUGGCAAAGUGGCUGUGGCUAGACUGCCUCUCUGGAUUCCACGUCUCUCAGCAGGGCAUCCCUGAGAGAAAUGCC, the self-cleavage amounted to 0.31.

Consider UACGUAGGUGGUUUUCCCCUGAUAGUGCUGAGGGGUCCUGGAAGUUUGGACUGGGCAGAGCUCAACACAGCGUGGCAAAGUGGCUGUGGCUAGACUGCCUCUCUGGGUUCCUCGUCACUCAGCAGGGCAUCUCUGAGAGAAAUGCC, for which the self-cleavage was determined as 1.12.

Turning to UACGUAGGUGGUUUUCCCCUGAUAGUGCUGAGGGGGCCUGGAAGUUUGGACUGGGCAGAGCUCAACACAGCGUGGCUAAGUGGCUGUGGCUAGACUGCCUCUCUGGAUUCCUCGCCACUCAGCAGGGCAUCUCUGAGAGAAAUGCC, the self-cleavage turned out to be 1.79.

For UACGUAGGUGGUUUUCCCCUGAUAGUGCUGAGGGGGCCUGGAAGUUUGGACUGGGCAGAGCUCAACACAGCGUGGCGAAGUGGCUGUGGCUAGACUGCCUCUCUGGAUUCCUCGUCACUCAGCAGGGCAUCUCUGAGAGAAGUGCC, the self-cleavage amounted to 2.15.

Consider UACGUAGGUGGUUUUCCCCUGAUAGUGCUGAGGGGGCCAGGAAGUAUGGACUGGGCAGAGCUCAACACAGCGUGGCAAAGUGGCUGUGGCUAGACUGCCUCUCUGGAUUCCUCGUCACUCAGCAGGGCAUCUCUGAGAGAAAUGCC, for which the self-cleavage came to 0.94.

On to UACGUAGGUGGUUUUCCCCUGAUAGUGCUGAGGGGGCCUGGAAGUUUGGACUGGGCAGAGCUCAACACAGCGUGGCAAAGUGGCUGUGGCUAGGCUGCCUCUCUGGAUUCCUCGUCACUCAGCAGGGCAUCUCUGGGAGAAAUGCC, for which the self-cleavage was found to be 1.08.

For the variant UACGUAGGUGGUUUUCCCCUGAUAGUGCUGAGGGGGCCUGGAAGUUUGGACUGGGCAGAGCUCAACACAGCGUGGCAAAGUGGCUGUGGCUAGGCUGCCUCUCUGGGUUCUUCGUCACUCAGCAGGGCAUCUCUGAGAGGAAUGCC, the self-cleavage came out at 2.87.

Take UACGUAGGUGGUUUUCCCCUGAUAGUGCUGAGGGGGCCUGGAAGUUUGGACUGGGCAGAGCUCAACACAGCGUGGCAAAGUGGCUGUGGCUAGACUGCCUCUCUGGAUUCCUCGUCACUCAGCAGGGCAUCUCUGAGAGAGAUGCU: the self-cleavage stood at 0.93.

Take UACGUAGGUGGUUUUCCCCUGAUAGUGCUGAGGGGGCCUGGAAGUCUGGACUGGGCAGAGCCCUACACAGCGUGGCGAAGUGGCUGUGGCUAGACUGCCUCUCUGGAUUCCUCGUCACUCAGCAGGGCAUCUCUGAGAGAAAUGCC: the self-cleavage was found to be 0.

As to UACGUAGGUGGUUUUCCCCUGAUAGUGCUGAGGGGACCGGGAAGUUUGGACUGGGCAGAGCUCAACACAGCGUGGCAAAGUGGCUGUGGCUAGACUGCCUCUCUGGAUUCCUCGUCACUCAGCAGGGCAUCUCUGAGAGAAAUGCC, the self-cleavage was found to be 0.

With UACGUAGGUGGUUUUCCCCUGAUAGUGCUGAGGGGGCCUGGAAGUUUGGACUGGGCAGAGCUCAACACAGCGUGGCGAAGCGGCUGUGGCUAGACUGCCUCUCUGGAUUCCUCGUCACUCAGCAGGGCAUCUCUGAGAGAAAUGCC, the self-cleavage amounted to 1.62.

With UACGUAGGUGGUUUUCCCCUGAUAGUGCUGAGGGGACCUGGAAGUUUGGACUGGGCAGAGCUCAACGCAGCGUGGCAAAGUGGCUGUGGCUAGACUGCCUCUCUGGAUUCCUCGUCACUCAGCAGGGCAUCUCUGAGAGAAAUGCC, the self-cleavage was determined as 0.63.

As to UACGUAGGUGGUUUUCCCCUGAUAGUGCUGAGGGGGCCUGGAAGUCUGGACUGGGCAGAGCUCAACACAGCGUGGCAAAGUGGCUGUGGCUAGACUGCCUCUCAGGAUUCCUCGUCACUCAGCAGGGCAUCUCUGAGAGAAAUGCC, the self-cleavage was 2.2.

On to UACGUAGGUGGUUUUCCCCUGAUAGUGCUGAGGGGGCCUGGAAGUUUGGACUGGGCAGAGCUCAACUCAGCGUGGCAAAGUGGCUGUGGCUAGACUGCCUCUCUGGAUUCCUCGUCACUCAGCAGGGCAUCCCUGAGAGAAACGCC, for which the self-cleavage worked out at 0.31.

Turning to UACGUAGGUGGUUUUCCCCUGAUAGUGCUGAGGGGGCCAGGAAGUUUGGACUGGGCAGAGCUCAACACAGCGUGGCAAAGUGGCUGUGGCUAGACUGCCUCUCUGGAUUCCUCGUCACUCAGCAGGGCAUCUCUGAGAGAAAUGCG, the self-cleavage turned out to be 1.43.

As for UACGUAGGUGGUUUUCCCCUGAUAGUGCUGAGGGGGCCUGGAAGUUUGGACUGGGCGGAGCUCAACACAGCGUGGCAAAGAGGCUGUGGCUAGACUGCCUCUCUGGAUUCCUCGUCACUCAGCAGGGCACCUCUGAGAGAAAUGCC, the self-cleavage turned out to be 0.71.

On to UACGUAGGUGGUUUUCCCCUGAUAGUGCUGAGGUGGCCUGAAAGUGUGGACUGGGCAGAGCUCAACACAGCGUGGCAAAGUGGCUGUGGCUAGACUGCCUCUCUGGAUUCCUCGUCACUCAGCCGGGCAUCUCUGAGAGAAAUGCC, for which the self-cleavage worked out at 1.84.

Regarding UACGUAGGUGGUUUUCCCCUGAUAGUGCUGAGGGGGCCCGGAAGUUUGGACUGGGCAGAGCUCAACACAGCGUGGCAAAGUGGCUGUGGCUAGACAGCCUCUCUGGAUUCCUCGUCACUCAGCAGGGCAUCUCUGAGAGAAAUGCC, the self-cleavage was determined as 0.24.

For the variant UACGUAGGUGGUUUUCCCCUGAUAGUGCUGAGGGGGCCUGGAAGUUUGGACUGGGCAGUGCUCAACACAGCGUGGCAAAGUGGCUGUGGCUAGACUGCCCCUCUGGAUUCCUCGUCACUCAGCAGGGCAUCUCUGAGAGAAAUGCC, the self-cleavage amounted to 0.8.

With UACGUAGGUGGUUUUCCCCUGAUAGUGCUGAGGGGGCCUGGAAGUUUGGACUGGGCAGAGCUCUACUCAGCGUGGCAAAGUGGCUGUGGCUAGACUGCCUCUCUGGAUUCCUCGUCACUCAGCAGGGCAUCUCUGAGAGAAAUGCC, the self-cleavage is 0.03.

Turning to UACGUAGGUGGUUUUCCCCUGAUAGUGCUGAGGGGGCCUGGAAGUCUGGACUGGGCAGAGCUCAACACAGCGUGGCAGAGUGGCUGUGGCUAGACUGCCUCUCUGGAUUCCACGUCACUCAGCAGGGCAUCUCUGAGAGAAAUGCC, the self-cleavage amounted to 0.42.

As for UACGUAGGUGGUUUUCCCCUGAUAGUGCUGAGGGGGCCCGGAAGUUUGGACUGGGCAGGGCUCAACACAGCGUGGCAAAGUGGCUGUGGCUAGACUGCCUCUCUGGAUUCCUCGUCACUCAGCAGGGCAUCUCUGAGAGAAAUGCC, the self-cleavage was found to be 0.36.

For the variant UACGUAGGUGGUUUUCCCCUGAUAGUGCUGAGGGGGCCUGGAAGUUUGGUCUGGGCAGAGCUCAACACAGCGUGGCAAAGUGGCUGUGGCUAGACUGCCUCUCUGGAUUCCUCGCCACUCAGCAGGGCAUCUCUGAGAGAAAUGCC, the self-cleavage came to 0.92.

UACGUAGGUGGUUUUCCCCUGAUAGUGCUGAGGGAGCCUGGAAGUUUGGGCUGGGCAGAGCUCAACGCAGCGUGGCAAAGUGGCUGUGGCUAGACUGCCUCUCUGGAUUCCUUGUCACUCAGCAGGGCAUCUCUGAGAGAAAUCCC: the self-cleavage is 0.42.

For UACGUAGGUGGUUUUCCCCUGAUAGUGCUGAGGGGGCCUGGAAGUAUGGACUGGGCAGAGCUCAACACAGCGUGGCAAAGUGGCUGUGGCUAGACUGCCUCUCUGGAUUCCUCGUCACUCAGCAGGGCAUCUCCGAGAGAAAUGCC, the self-cleavage was determined as 1.08.

On to UACGUAGGUGGUUUUCCCCUGAUAGUGCUGAGGGGGCCUGGAAGUUUGGAAUGGGCAGAGCUCAACACAGCGUGGCAAAGUGGCUGUGGCUAGACUGCCUCCCUGGAUUCCUCGUCACUCAGCAGGGCAUCUCUGAGGGAAAUGCC, for which the self-cleavage is 0.98.

Take UACGUAGGUGGUUUUCCCCUGAUAGUGCUGAGGGGGCCUGGAAGUUUGGACUGGGCAGAGCUCGACACAGCGUGGCAAAGUGGCUGUGGCUAGACUGCCUCUCUGGAUUCCUUGUCACUCAGCAGGGCAUCUCUGAGAGAAAUGCC: the self-cleavage turned out to be 0.53.

Consider UACGUAGGUGGUUUUCCCCUGAUAGUGCUGAGGGGGCCAGGAAGUUUGGACUGGGCAGAGCUCAACACAGCGUGGCAAAGUGGCUGUGGCUAGACUGCCUCUCUGGAUUCCUCGUCACUCAGCAGGGCAUCUCUGGGAGAAAUGCC, for which the self-cleavage was determined as 1.93.

Turning to UACGUAGGUGGUUUUCCCCUGAUAGUGCUGAGGGGGCCUGGAAGUUUGGACUGGGCAGAGCUCAACGCAGCGUGGCAAAGUGGCUGAGGCUAGACUGCCUCUCUGGAUUCCUCGUCACUCAGCAGGGCAUCUCUGAGAGAAAUGCC, the self-cleavage is 1.

With UACGUAGGUGGUUUUCCCCUGAUAGUGCUGAAGGGGCCUGGAAGUCUGGACUGGGCAGAGCCCAACACAGCGUGGCAAAGUGGCUGUGGCUAGACUGCCUCUCUGGAUACCUCGUCACUCAGCAGGGCAUCUCUGAGAGAAAUGCC, the self-cleavage stood at 0.24.

Regarding UACGUAGGUGGUUUUCCCCUGAUAGUGCUGAGGGGGCCUGGAAGUUUGCACUGGGCAGGGCUCAACACAGCGUGGCAAAGUGGCUGUGGCUAGACUGCCUCUCUGGAUUCCUCGUCACUCAGCAGGGCAUCUCUGAGAGAAAUGCC, the self-cleavage stood at 0.43.

For the variant UACGUAGGUGGUUUUCCCCUGAUAGUGCUGAGGGGGCCUGGAAGUUUGGACUGGACAGAGCUCAACACAGCGUGGCAAAGUGGCUGUGGCUAGACUGCCUCUCUGGAUUCCUCGUCACUCAGCAGGGCGUCUCUGAGAGAAAUGCC, the self-cleavage worked out at 1.22.

For UACGUAGGUGGUUUUCCCCUGAUAGUGCUGAGGGGGCCUGGAAGUUUGGACUGGGCUGAGCUCAACACAGCGUGGCAAAGUGGCUGUGGCUAGACUGCCUCUCUGGAUUCCUCGUCACUCAGCAGGGCAUCUCUGAGGGAAAUGCC, the self-cleavage came out at 0.16.
